Assay results reported in the supplement of paper PMC4967469.
The IC50 comes from the fitted curve, where viability falls to half of the control; where the fit passes the top or lowest dose, that dose stands as a limit. AUC sums up the same curve from the lowest dose to the 256-fold higher top dose: 1 means no effect, lower means more sensitive. The top dose, if marked as inferred, is not printed in the source and was worked back from the curve model.

compound: O=C1NC(=O)/C(=C\c2ccc3nccnc3c2)S1 [AS605240]; experiment: Viability of human cancer cell lines after 72 h of drug (GDSC screen); settings: top dose inferred
Protocol: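 Human cancer cell lines in 384-well plates, medium with 10% serum, drug for 72 h over a 256-fold dose range (nine 2-fold or five 4-fold steps up to the top dose). Adherent lines were fixed and stained with the nucleic acid dye Syto60, suspension lines read with resazurin; signal relative to control wells, capped at 0 and 100%. One two-parameter sigmoid per drug and line, fitted in a mixed model over all curves with the slope shared within a line.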

Cell Line	AUC	IC50 [µM]
KP-3 (pancreas, adherent, top dose 20 µM)	0.783	10.1
NB10 (neuroblastoma, adherent, top dose 20 µM)	0.972	> 20
SKG-IIIa (cervix, adherent, top dose 20 µM)	0.981	> 20
NUGC-3 (stomach, adherent, top dose 20 µM)	0.923	> 20
MSTO-211H (mesothelioma, adherent, top dose 20 µM)	0.983	> 20
EW-3 (Ewing sarcoma, adherent, top dose 20 µM)	0.824	14.1
BxPC-3 (pancreas, adherent, top dose 20 µM)	0.915	> 20
SK-MES-1 (lung squamous cell carcinoma, adherent, top dose 20 µM)	0.67	3.89
NCI-H727 (lung carcinoid, adherent, top dose 20 µM)	0.369	0.427
CHSA8926 (chondrosarcoma, adherent, top dose 20 µM)	0.978	> 20
KINGS-1 (glioma, adherent, top dose 20 µM)	0.86	> 20
NCI-H1436 (small cell lung carcinoma, suspension, top dose 20 µM)	0.893	> 20
SUP-HD1 (Hodgkin lymphoma, suspension, top dose 20 µM)	0.845	13.5
ASH-3 (thyroid, adherent, top dose 20 µM)	0.988	> 20
TE-15 (oesophagus, suspension, top dose 20 µM)	0.567	1.95
HTC-C3 (thyroid, adherent, top dose 20 µM)	0.911	> 20
KMS-11 (myeloma, suspension, top dose 20 µM)	0.962	> 20
L-363 (myeloma, suspension, top dose 20 µM)	0.891	17.7
LB1047-RCC (kidney, adherent, top dose 20 µM)	0.848	17.8
P12-ICHIKAWA (T-cell lymphoblastic leukaemia, suspension, top dose 20 µM)	0.544	1.6

Cell Line	AUC	IC50 [µM]
H-EMC-SS (chondrosarcoma, adherent, top dose 20 µM)	0.859	> 20
HN (head and neck, adherent, top dose 20 µM)	0.912	> 20
NB(TU)1-10 (neuroblastoma, adherent, top dose 20 µM)	0.977	> 20
SW1710 (bladder, adherent, top dose 20 µM)	0.874	> 20
RC-K8 (B-cell lymphoma, suspension, top dose 20 µM)	0.977	> 20
COLO-792 (melanoma, adherent, top dose 20 µM)	0.676	3.84
NCI-H2110 (non-small cell lung carcinoma, adherent, top dose 20 µM)	0.942	> 20
Hs-578-T (breast, adherent, top dose 20 µM)	0.987	> 20
DU-4475 (breast, suspension, top dose 20 µM)	0.015	< 0.0781
GP5d (large intestine, adherent, top dose 20 µM)	0.869	15.2
KALS-1 (glioma, adherent, top dose 20 µM)	0.807	15.1
AMO-1 (haematopoietic neoplasm, suspension, top dose 20 µM)	0.865	13.6
H2804 (mesothelioma, adherent, top dose 20 µM)	0.897	> 20
Hs633T (fibrosarcoma, adherent, top dose 20 µM)	0.865	12.6
Ramos-2G6-4C10 (Burkitt lymphoma, suspension, top dose 20 µM)	0.885	16.4
EFM-19 (breast, adherent, top dose 20 µM)	0.806	17.5
BEN (non-small cell lung carcinoma, adherent, top dose 20 µM)	0.94	> 20
NB-4 (acute myeloid leukaemia, suspension, top dose 20 µM)	0.096	0.0868
Ca-Ski (cervix, adherent, top dose 20 µM)	0.746	6.99
HT-1080 (fibrosarcoma, adherent, top dose 20 µM)	0.989	> 20
